Reference: PubChem BioAssay AID1346428 (National Center for Advancing Translational Sciences (NCATS), 2018)
Where “and” joins values, the source holds several entries; their conditions need not be identical. Equal entries are not always repeated. In all, about 48,000 compounds went through this assay and about 1,200 (2.5%) were called active. Another 2% or so got no clear call; they are omitted.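 How the source made its calls: active means activation of at least 60% and not above a set upper limit (about 1 call in 100 departs from these limits); inconclusive means activation of 40% to 60%, or above that upper limit; inactive means activation under 40%.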 This is one part of the list. More than one record can exist for a structure, and the calls need not agree.

These compounds were tested against Probable G-protein coupled receptor 32 (Homo sapiens) (UniProt O75388) (assay: qHTS for Agonists of Human Resolvin D1 Receptor DRV1). Conditions: CHO-K1 GPR32 beta-arrestin PathHunter luminescence, 90 min; at 76.9 µM; stronger effect = higher value; zero percent set by DMSO-only wells.
Method in brief: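 CHO-K1 cells stably expressing ProLink-tagged GPR32 and Enzyme Activator-tagged beta-arrestin were seeded at 2,500 cells/well overnight, exposed to compounds for 90 min at 37 °C, then read by beta-Gal complementation chemiluminescence after 1 h detection reagent.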
Further: 0% is about no effect.

Chain of UniProt O75388 (O75388 whole entry, looked up): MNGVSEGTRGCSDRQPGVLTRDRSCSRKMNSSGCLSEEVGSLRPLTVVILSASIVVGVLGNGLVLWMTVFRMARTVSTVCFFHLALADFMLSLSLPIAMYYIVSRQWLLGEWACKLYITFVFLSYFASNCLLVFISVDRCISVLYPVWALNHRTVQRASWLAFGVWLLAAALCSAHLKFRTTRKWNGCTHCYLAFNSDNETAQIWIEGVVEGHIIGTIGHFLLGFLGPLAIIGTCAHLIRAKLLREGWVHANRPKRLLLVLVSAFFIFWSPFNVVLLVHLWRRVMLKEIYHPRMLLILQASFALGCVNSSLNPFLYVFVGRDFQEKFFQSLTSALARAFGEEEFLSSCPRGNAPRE

SMILES | activation
CC(C)Cc1nn2c(=O)cc(COC(=O)c3ccc(NC(=O)CCc4ccccc4)cc3)nc2s1 | inactive: -16.1%
O=c1c(N2CCc3ccccc3C2)csc2ccc(Cl)cc12 | inactive: -40.2%
Cc1ccc(NC(=O)C(C)Sc2nc(-c3ccccc3)c(C#N)c(=O)[nH]2)c(C)c1 (configuration not stated) | inactive: 38.9%
O=C(Nc1nnc(S(=O)(=O)N2CCOCC2)s1)c1ccccc1F | inactive: 36.6%
COc1ccc(/C=C/C(=O)Nc2sc(C)c(C)c2C(=O)O)cc1 | inactive: -5.14%
CCOc1cc(CN2CCN(S(=O)(=O)c3ccc(C)cc3)CC2)ccc1OC | inactive: -12.9%
CC(C)c1cnc2c(c1SCC(=O)N1CCCCC1)c(=O)n(C)c(=O)n2C | inactive: -20.6%
COc1ccc(Nc2c(-c3ccc(N4CCOCC4)cc3)nc3ncccn23)cc1OC | inactive: -14.3%
CCOC(=O)N1CCc2c(sc3c2c(=O)n(Cc2ccccc2)c(=O)n3CC(=O)Nc2ccc(C)cc2C)C1 | inactive: -2.09%
CCn1c(=O)sc2cc(NS(=O)(=O)c3ccc(C)cc3)ccc21 | active: 60.6%
CC(=O)Nc1ccc(NC(=O)c2ccc3c(c2)NC(=O)c2ccccc2S3)cc1 | inactive: -5.46%
CCc1ccc2c(c1)NC(c1ccc(C)cc1)=NC(c1cccs1)=N2 | inactive: -33.6%
Cc1ccccc1OCC(=O)Nc1ccc2nc(SCC(=O)N3CCc4ccccc43)sc2c1 | inactive: 9.84%
Cc1cccc(N2CCN(S(=O)(=O)c3ccc(-c4cc(C(F)(F)F)on4)s3)CC2)c1C | inactive: -1.41%
O=C(C1CCCN(S(=O)(=O)c2ccc(Br)s2)C1)N1CCN(c2cccc(Cl)c2)CC1 (configuration not stated) | inactive: -5.38%
COc1ccccc1C1Nc2c(sc3nc(C)cc(C)c23)C(=O)N1c1ccccc1 (configuration not stated) | inactive: -25.3%
Cc1ccc(CNc2ncnc3c2cnn3-c2ccc(Cl)cc2)cc1 | inactive: -7.66%
OCc1cc(C(O)CNCCCCCCOCCCCc2ccccc2)ccc1O (configuration not stated) | active: 108% and inactive: -1.18%
CCC(C)Sc1oc(-c2ccco2)nc1S(=O)(=O)c1ccc(C)cc1 (configuration not stated) | inactive: -13.8%
COc1cccc(C2C(C(=O)Nc3ccc(Cl)cc3)=C(C)Nc3nc4ccccc4n32)c1 (configuration not stated) | inactive: 12.6%
COc1ccc(OCC(=O)Nc2cc(-c3nc4ccccc4s3)ccc2C)cc1 | inactive: -4.02%
C#CCN1C(C)=C(C(=O)OC)C(c2cccc([N+](=O)[O-])c2)C(C(=O)OCC)=C1C (configuration not stated) | inactive: -29.8%
COc1ccc(Cl)cc1NC(=O)c1nnn(Cc2cccc(C(F)(F)F)c2)c1N | inactive: -10.3%
COc1ccc2c(c1)c1c(c(=O)n(-c3ccc(C)cc3)c(=O)n1CC(=O)NCc1ccc(C)cc1)n2C | inactive: 8.54%
Cc1cc2c(cc1C)NC(CC(=O)Nc1cccc(Cl)c1)C(=O)N2 (configuration not stated) | inactive: -20.1%
NS(=O)(=O)c1ccc(CCNC(=O)Cn2c(-c3cccs3)cc3ccccc32)cc1 | inactive: 2.26%

SMILES | activation
O=C(O)Cc1sc(-c2ccccc2)nc1-c1ccc(Cl)cc1 | inactive: 34.8%
CC(=O)OCC(=O)[C@@]12N=C(C)O[C@@H]1C[C@H]1[C@@H]3CCC4=CC(=O)C=C[C@]4(C)[C@H]3[C@@H](O)C[C@@]12C | inactive: -11.1%
O=C(NCC(c1ccc2c(c1)OCO2)N1CCOCC1)C(=O)Nc1ccccc1 (configuration not stated) | inactive: -3.3%
CCN(CC)c1ccc(NC(=O)CCc2nc3cccnc3n2Cc2cccs2)c(C)c1 | inactive: -3.51%
C=CCc1cccc2cc(C(=O)NCCc3c(C)[nH]c4c(C)cccc34)c(=O)oc12 | inactive: 37.4%
CNc1ccc(-c2nc(-c3ccco3)no2)cc1[N+](=O)[O-] | inactive: -6.09%
Cc1ccccc1NC(=O)c1ccc2c(O)c(S(=O)(=O)c3ccccc3)c(=O)[nH]c2c1 | inactive: -9.94%
CCOC(=O)N1CCC(NC(=O)c2cnn(-c3ccc(F)cc3F)c2C2CCN(C(=O)OC(C)(C)C)CC2)CC1 | inactive: -15.8%
O=C(NCC(c1ccc2c(c1)OCO2)N1CCOCC1)C(=O)Nc1ccc(F)cc1F (configuration not stated) | inactive: -9.85%
COc1cc2[nH]c(=O)n(Cc3ccc(C(=O)N4CCN(c5cc(Cl)ccc5C)CC4)cc3)c(=O)c2cc1OC | inactive: -3.9%
COc1ccc(N(Cc2cccs2)C(=O)c2ccc(C(C)(C)C)cc2)cc1 | inactive: -35.6%
CC(=O)Nc1ccc(CC(=O)O)cc1 | inactive: -3.73%
O=C(Nc1cccc(Cl)c1)N1CCC(CN2CCOCC2)CC1 | inactive: 3.84%
O=C(CN1C(=O)CC(c2ccco2)Sc2ccccc21)Nc1ccc(C(F)(F)F)cc1 (configuration not stated) | inactive: -6.71%
O=C(Cn1cnc2c(oc3ccccc32)c1=O)Nc1ccc(OC(F)(F)F)cc1 | inactive: 7.84%
Cc1ccc(CNC(=O)c2ccc3c(c2)N(Cc2ccccc2)C(=O)c2ccccc2S3(=O)=O)cc1 | inactive: -25.4%
COc1ccccc1CNC(=O)Cc1csc2nc(-c3ccccc3)cn12 | inactive: -11.7%
CC(C)(C)c1ccc(S(=O)(=O)c2cn(CC(=O)Nc3ccccc3)c3ccccc3c2=O)cc1 | inactive: -2.4%
Cc1cccc(CCNC(=O)c2cnc3c(C)cccn3c2=O)c1 | inactive: -7.28%
Cc1ccc2c(c1)N(C(=O)C1CCN(S(=O)(=O)c3c(C)noc3/C=C/c3ccccc3F)CC1)CCO2 | inactive: -25.3%
CCn1c(SCc2ccc(F)cc2Cl)nnc1-c1nonc1NC(C)=O | inactive: 5.8%
CCOC(=O)c1ccc(NC(=O)c2c(C)nn(-c3ccc(F)cc3)c2-n2cccc2)cc1 | inactive: -0.666%
O=C(CCC1N=C2c3ccccc3N=C(SCc3ccccc3F)N2C1=O)NCCc1ccccc1 (configuration not stated) | inactive: -22.2%
Cc1cc(C)c(NC(=O)Cn2ccn(-c3cccc(Cl)c3)c(=O)c2=O)c(C)c1 | inactive: -4.78%
COC(=O)C1CCN(CC(=O)Nc2cc(C)c3c(=O)oc4ccccc4c3n2)CC1 | inactive: 17.6%
COc1ccc(N(C(=O)c2cccc(C)c2)S(=O)(=O)c2ccc(C)cc2)cc1 | inactive: -5.4%
